# Positions count from the first letter of the chain named. Some of the results follow.
# T1: RBFOX1 RRM RbFoxmut (Fox-RRM*) (Homo sapiens, UniProt Q9NWB1 109-208, R118D;E147R;N151S;E152T)
# T1 sequence: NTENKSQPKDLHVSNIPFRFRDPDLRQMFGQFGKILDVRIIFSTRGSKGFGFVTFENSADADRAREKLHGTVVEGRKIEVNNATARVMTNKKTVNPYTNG
# B1: GGACUAC (DNA:RNA)
# RNA: GGGAGACCGGAAUUCAGAUUGUCCGGACUACUUAAAUCCCGUCGUAGCCACCA
# DNA 1: CAATCTGAATTCCGGTCTCCC
# DNA 2: TGGTGGCTACGACGGGATT
# B2: GACCCGA (DNA:RNA)
# RNA: B1 RNA with G26A, A27C, U29C, A30G, C31A
# DNA 1: CAATCTGAATTCCGGTCTCCC
# DNA 2: TGGTGGCTACGACGGGATT
# B3: UUGCCUU (DNA:RNA)
# RNA: B1 RNA with G25U, G26U, A27G, U29C, A30U, C31U
# DNA 1: CAATCTGAATTCCGGTCTCCC
# DNA 2: TGGTGGCTACGACGGGATT
# B4: AUUGGAA (DNA:RNA)
# RNA: B1 RNA with G25A, G26U, A27U, C28G, U29G, C31A
# DNA 1: CAATCTGAATTCCGGTCTCCC
# DNA 2: TGGTGGCTACGACGGGATT
# B5: AGGAUUC (DNA:RNA)
# RNA: B1 RNA with G25A, A27G, C28A, A30U
# DNA 1: CAATCTGAATTCCGGTCTCCC
# DNA 2: TGGTGGCTACGACGGGATT
# B6: UCUAGUC (DNA:RNA)
# RNA: B1 RNA with G25U, G26C, A27U, C28A, U29G, A30U
# DNA 1: CAATCTGAATTCCGGTCTCCC
# DNA 2: TGGTGGCTACGACGGGATT
# B7: CGGCGAU (DNA:RNA)
# RNA: B1 RNA with G25C, A27G, U29G, C31U
# DNA 1: CAATCTGAATTCCGGTCTCCC
# DNA 2: TGGTGGCTACGACGGGATT
# B8: AGUCUUU (DNA:RNA)
# RNA: B1 RNA with G25A, A27U, A30U, C31U
# DNA 1: CAATCTGAATTCCGGTCTCCC
# DNA 2: TGGTGGCTACGACGGGATT
# B9: UGACUCU (DNA:RNA)
# RNA: B1 RNA with G25U, A30C, C31U
# DNA 1: CAATCTGAATTCCGGTCTCCC
# DNA 2: TGGTGGCTACGACGGGATT
# B10: UAUAUUC (DNA:RNA)
# RNA: B1 RNA with G25U, G26A, A27U, C28A, A30U
# DNA 1: CAATCTGAATTCCGGTCTCCC
# DNA 2: TGGTGGCTACGACGGGATT
# B11: GUUAUAC (DNA:RNA)
# RNA: B1 RNA with G26U, A27U, C28A
# DNA 1: CAATCTGAATTCCGGTCTCCC
# DNA 2: TGGTGGCTACGACGGGATT
# B12: CUGUAGU (DNA:RNA)
# RNA: GGGAGACCGGAAUUCAGAUUGUCCCUGUAGUUUAAAUCCCGUCGUAGCCACCA
# DNA 1: CAATCTGAATTCCGGTCTCCC
# DNA 2: TGGTGGCTACGACGGGATT
# B13: GGCUUUC (DNA:RNA)
# RNA: B1 RNA with A27C, C28U, A30U
# DNA 1: CAATCTGAATTCCGGTCTCCC
# DNA 2: TGGTGGCTACGACGGGATT
# B14: ACCAGCU (DNA:RNA)
# RNA: B12 RNA with C25A, U26C, G27C, U28A, A29G, G30C
# DNA 1: CAATCTGAATTCCGGTCTCCC
# DNA 2: TGGTGGCTACGACGGGATT
# B15: ACCGUCC (DNA:RNA)
# RNA: B1 RNA with G25A, G26C, A27C, C28G, A30C
# DNA 1: CAATCTGAATTCCGGTCTCCC
# DNA 2: TGGTGGCTACGACGGGATT
# B16: CCGUUGG (DNA:RNA)
# RNA: B12 RNA with U26C, A29U, U31G
# DNA 1: CAATCTGAATTCCGGTCTCCC
# DNA 2: TGGTGGCTACGACGGGATT
# B17: CCCAGGU (DNA:RNA)
# RNA: B12 RNA with U26C, G27C, U28A, A29G
# DNA 1: CAATCTGAATTCCGGTCTCCC
# DNA 2: TGGTGGCTACGACGGGATT
# B18: GAACACA (DNA:RNA)
# RNA: B1 RNA with G26A, U29A, A30C, C31A
# DNA 1: CAATCTGAATTCCGGTCTCCC
# DNA 2: TGGTGGCTACGACGGGATT
# B19: GCUUUAA (DNA:RNA)
# RNA: B1 RNA with G26C, A27U, C28U, C31A
# DNA 1: CAATCTGAATTCCGGTCTCCC
# DNA 2: TGGTGGCTACGACGGGATT
# B20: GAUGUUG (DNA:RNA)
# RNA: B1 RNA with G26A, A27U, C28G, A30U, C31G
# DNA 1: CAATCTGAATTCCGGTCTCCC
# DNA 2: TGGTGGCTACGACGGGATT
# B21: ACACGCG (DNA:RNA)
# RNA: B1 RNA with G25A, G26C, U29G, A30C, C31G
# DNA 1: CAATCTGAATTCCGGTCTCCC
# DNA 2: TGGTGGCTACGACGGGATT
# B22: UCAGAAA (DNA:RNA)
# RNA: B1 RNA with G25U, G26C, C28G, U29A, C31A
# DNA 1: CAATCTGAATTCCGGTCTCCC
# DNA 2: TGGTGGCTACGACGGGATT
# B23: UUUGCCA (DNA:RNA)
# RNA: B12 RNA with C25U, G27U, U28G, A29C, G30C, U31A
# DNA 1: CAATCTGAATTCCGGTCTCCC
# DNA 2: TGGTGGCTACGACGGGATT
# B24: CGUAAUC (DNA:RNA)
# RNA: B12 RNA with U26G, G27U, U28A, G30U, U31C
# DNA 1: CAATCTGAATTCCGGTCTCCC
# DNA 2: TGGTGGCTACGACGGGATT
# B25: GAUGUAC (DNA:RNA)
# RNA: B1 RNA with G26A, A27U, C28G
# DNA 1: CAATCTGAATTCCGGTCTCCC
# DNA 2: TGGTGGCTACGACGGGATT
# B26: CAUCUUC (DNA:RNA)
# RNA: B1 RNA with G25C, G26A, A27U, A30U
# DNA 1: CAATCTGAATTCCGGTCTCCC
# DNA 2: TGGTGGCTACGACGGGATT
# B27: GGAGAUA (DNA:RNA)
# RNA: B1 RNA with C28G, U29A, A30U, C31A
# DNA 1: CAATCTGAATTCCGGTCTCCC
# DNA 2: TGGTGGCTACGACGGGATT
# B28: AGGAUCU (DNA:RNA)
# RNA: B12 RNA with C25A, U26G, U28A, A29U, G30C
# DNA 1: CAATCTGAATTCCGGTCTCCC
# DNA 2: TGGTGGCTACGACGGGATT
# B29: AGCCAAU (DNA:RNA)
# RNA: B1 RNA with G25A, A27C, U29A, C31U
# DNA 1: CAATCTGAATTCCGGTCTCCC
# DNA 2: TGGTGGCTACGACGGGATT
# B30: GCGUCUC (DNA:RNA)
# RNA: B12 RNA with C25G, U26C, A29C, G30U, U31C
# DNA 1: CAATCTGAATTCCGGTCTCCC
# DNA 2: TGGTGGCTACGACGGGATT
# B31: AUUGAAU (DNA:RNA)
# RNA: B12 RNA with C25A, G27U, U28G, G30A
# DNA 1: CAATCTGAATTCCGGTCTCCC
# DNA 2: TGGTGGCTACGACGGGATT
# Biological target: T1, RBFOX1 RRM RbFoxmut (Fox-RRM*)
# Assay: EMSA; HiTS-Eq, 1 nM pool, 10 min; buffer printed only for the single-RNA assays: 10 mM Tris pH 7.5, 150 mM NaCl, 3.4 mM EDTA, 0.001% NP-40, 30 C
# Details: tags: His6 N-terminal (pET28a); label: 5' 32P
# Method in brief: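 Purified wild-type or mutant RbFox RRM at increasing concentrations was equilibrated with 1 nM of 5′-radiolabelled RNA carrying 7 randomized nucleotides for 10 min in 50 µL. Unbound RNA was separated by 8% native PAGE and sequenced. Relative association constants came from read-count changes of each RNA species compared with the control reaction, normalised to the cognate motif.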
row,Binder,binding signal
1,B1,0.0748 KA relative to UGCAUGU
2,B2,0.0751 KA relative to UGCAUGU
3,B3,0.0951 KA relative to UGCAUGU
4,B4,0.119 KA relative to UGCAUGU
5,B5,0.183 KA relative to UGCAUGU
6,B6,0.0753 KA relative to UGCAUGU
7,B7,0.0672 KA relative to UGCAUGU
8,B8,0.0677 KA relative to UGCAUGU
9,B9,0.0642 KA relative to UGCAUGU
10,B10,0.0799 KA relative to UGCAUGU
11,B11,0.114 KA relative to UGCAUGU
12,B12,0.143 KA relative to UGCAUGU
13,B13,0.0896 KA relative to UGCAUGU
14,B14,0.0887 KA relative to UGCAUGU
15,B15,0.0723 KA relative to UGCAUGU
16,B16,0.0941 KA relative to UGCAUGU

row,Binder,binding signal
1,B17,0.115 KA relative to UGCAUGU
2,B18,0.0865 KA relative to UGCAUGU
3,B19,0.103 KA relative to UGCAUGU
4,B20,0.132 KA relative to UGCAUGU
5,B21,0.12 KA relative to UGCAUGU
6,B22,0.101 KA relative to UGCAUGU
7,B23,0.11 KA relative to UGCAUGU
8,B24,0.0673 KA relative to UGCAUGU
9,B25,0.0856 KA relative to UGCAUGU
10,B26,0.0623 KA relative to UGCAUGU
11,B27,0.112 KA relative to UGCAUGU
12,B28,0.0527 KA relative to UGCAUGU
13,B29,0.0479 KA relative to UGCAUGU
14,B30,0.072 KA relative to UGCAUGU
15,B31,0.135 KA relative to UGCAUGU

# Source: paper PMC9911399, “Two distinct binding modes provide the RNA-binding protein RbFox with extraordinary sequence specificity”
